# Laboratory results: the BET-seq Pho4 binding data (Le et al. 2018)
# This is one part of the list. The energies were worked out here from pooled read counts, against the library average; single values are noisy.
# Target: T1, Pho4 (S. cerevisiae) (UniProt P07270)
# T1 sequence: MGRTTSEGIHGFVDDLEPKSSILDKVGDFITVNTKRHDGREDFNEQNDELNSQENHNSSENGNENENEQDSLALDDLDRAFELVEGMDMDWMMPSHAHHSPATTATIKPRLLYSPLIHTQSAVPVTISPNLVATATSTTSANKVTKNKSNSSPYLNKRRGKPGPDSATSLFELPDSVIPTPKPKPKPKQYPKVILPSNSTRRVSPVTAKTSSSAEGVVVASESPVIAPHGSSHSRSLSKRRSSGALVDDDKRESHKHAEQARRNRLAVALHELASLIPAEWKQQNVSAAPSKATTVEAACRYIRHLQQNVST
# Assay: relative binding free energy (BET-seq); higher = weaker binding
# Settings: reference: library average
row,Sequence,relative binding free energy [kcal/mol]
1,AGTGTCACGTGATCTA,0.17
2,GGGGACACGTGGTGTT,-0.01
3,TTGAGCACGTGCGAAG,-0.01
4,ATATTCACGTGTGCTT,0.06
5,AGGCCCACGTGGGGTG,-0.27
6,ATACTCACGTGAGGTA,0.46
7,ATAGGCACGTGTGCAT,-0.05
8,GCGGGCACGTGTAAGG,-0.11
9,GTAGTCACGTGTGCTA,0.08
10,CATGGCACGTGTATTA,0.04
11,CTTGTCACGTGGTCGT,-0.06
12,TAATGCACGTGTTTAA,-0.15
13,AGTAACACGTGGGAAG,-0.01
14,CTAGCCACGTGGGGGT,-0.27
15,AGCATCACGTGAGGGA,0.34
16,TTTTGCACGTGCATTT,0.08
17,TCTGGCACGTGTGAGG,-0.01
18,TTAATCACGTGGTAAA,0.09
19,CTATGCACGTGGAGTT,-0.12
20,TAATTCACGTGTTGGC,0.27
21,AAGTTCACGTGGGTGA,0.17
22,TTGGGCACGTGCTGCT,-0.25
23,TGTTTCACGTGCTGTA,0.18
24,GGTTTCACGTGTTTGA,0.34
25,ATTTGCACGTGGTGTA,-0.11
26,AGTGACACGTGTAAAG,0.17

row,Sequence,relative binding free energy [kcal/mol]
1,TGTTACACGTGGGTAA,0.02
2,AGTTGCACGTGGATGA,0.03
3,GGGGTCACGTGTTGCG,0.09
4,TTTTGCACGTGAAGTT,0.24
5,GCTTTCACGTGGAGTG,0.27
6,TAGTGCACGTGGACGG,-0.14
7,TGGGACACGTGTGGCT,0.11
8,TCGATCACGTGGAGGA,0.23
9,TATATCACGTGTTAAT,0.04
10,GTGTGCACGTGAGATT,0.42
11,GTTGGCACGTGCGTAA,-0.15
12,AGCGGCACGTGCTTTG,-0.01
13,TGAATCACGTGGATAG,0.13
14,CTGCGCACGTGTTGTG,-0.19
15,AGGGTCACGTGCAAAG,0.25
16,TTTCTCACGTGTTCTA,0.26
17,CTTTGCACGTGTGATG,0.02
18,CATATCACGTGATGAG,0.35
19,GTGAACACGTGGGTTG,-0.15
20,TGAACCACGTGGTTGT,-0.15
21,GGAAACACGTGGGGGC,-0.07
22,CTATTCACGTGAAGTA,0.63
23,GGGAGCACGTGTGCGT,-0.21
24,TATTTCACGTGTGCAG,0.22
25,TTGAGCACGTGGAGGG,-0.06
26,GTAAGCACGTGCTTGG,-0.14

row,Sequence,relative binding free energy [kcal/mol]
1,TAGAGCACGTGTTGTG,-0.06
2,TTCGGCACGTGGTGTT,-0.09
3,CGAGGCACGTGGGGTG,-0.19
4,GAAGACACGTGTTGGG,-0.11
5,GGTCTCACGTGGGTAG,0.17
6,TCGGACACGTGGTTGG,-0.02
7,TACGGCACGTGTGTAG,-0.11
8,GTATTCACGTGGATGA,0.25
9,GTATACACGTGGAGCT,0.18
10,GGGAGCACGTGGCCGG,-0.23
11,GCGGTCACGTGTGAAG,0.32
12,TGGGTCACGTGATGCA,0.22
13,GGGAGCACGTGAAGTA,0.2
14,GGTGGCACGTGACATG,0.01
15,AGCATCACGTGAGTGG,0.27
16,GTTTGCACGTGTCCTG,0.04
17,GAGTGCACGTGAGGTC,0.29
18,TCGTGCACGTGTGCTG,-0.05
19,TGGTGCACGTGTCGCT,-0.2
20,CAAGTCACGTGTTATT,0.06
21,TTTCGCACGTGAATGG,0.13
22,AATTTCACGTGTTGGA,0.32
23,GGGTTCACGTGCTCTG,0.41
24,CCAGGCACGTGTTGTG,-0.08
25,TGGGTCACGTGCGTAA,0.01
26,ATTTGCACGTGGTATC,-0.17

row,Sequence,relative binding free energy [kcal/mol]
1,CGGGGCACGTGAGATG,0.25
2,GCTATCACGTGGTGGG,0.05
3,GGCATCACGTGGTTGC,0.2
4,TGTTGCACGTGAGTCA,0.15
5,CGCTGCACGTGGGCGG,-0.25
6,TAGGTCACGTGGGGTG,-0.08
7,TTGAGCACGTGGGACT,-0.2
8,TGTGACACGTGGCGAA,0.05
9,ATGATCACGTGCAGGG,0.07
10,AGTTGCACGTGGCTCG,-0.07
11,TGTTGCACGTGTTGAT,0.09
12,CTGCGCACGTGGCGGG,-0.17
13,ATTTGCACGTGACTTT,0.05
14,TGAAGCACGTGAGTTT,0.13
15,AGCAACACGTGGGGGG,-0.12
16,TGTGACACGTGTTGTT,0.13
17,GAGGGCACGTGGTCGC,-0.18
18,TGCGGCACGTGAAGTT,0.13
19,CATGTCACGTGTGGAG,0.02
20,TTGTACACGTGAGAAT,0.24
21,AGTGTCACGTGAGTAT,0.18
22,TTTGGCACGTGGCTCT,-0.16
23,TAATTCACGTGGTATG,0.27
24,GGTTACACGTGAAGGC,0.28
25,ATGCTCACGTGGGGAT,0.14
26,AGTGGCACGTGGTAAT,-0.15

row,Sequence,relative binding free energy [kcal/mol]
1,ATAGGCACGTGTAGAT,0.01
2,TTTCGCACGTGAGCGG,-0.04
3,CTGTACACGTGTATAT,0.11
4,GGAGCCACGTGGGGTC,-0.07
5,TATATCACGTGATGTT,0.22
6,GTTCGCACGTGTCGGT,-0.03
7,GGATCCACGTGTGTGA,0.18
8,CTGTACACGTGAGGGT,0.23
9,AAGGTCACGTGTGGAT,0.18
10,CAACTCACGTGTGGGG,0.3
11,TTTGACACGTGGCTTG,0.06
12,TGGTGCACGTGGAGGA,0
13,GATGGCACGTGTTTGG,0.09
14,GTTTACACGTGTCAGG,0.18
15,TTGGTCACGTGTTTAC,0.11
16,GGGTACACGTGGGCGC,-0.03
17,TCGGTCACGTGTAGAG,-0.01
18,TAAGTCACGTGTAGTA,0.18
19,AAGGTCACGTGGCTGC,0.06
20,CCCGTCACGTGGGTGG,-0.02
21,AGCTGCACGTGTAAGG,0.07
22,AATGACACGTGTGGTC,0.1
23,AGTAGCACGTGGCGTA,-0.21
24,TGACCCACGTGGTGGG,-0.17
25,AGCAACACGTGGTGGT,-0.13
26,GTTCGCACGTGTGATG,-0.05

row,Sequence,relative binding free energy [kcal/mol]
1,ACTGTCACGTGGTGTC,0.14
2,GGTGGCACGTGGGGAC,-0.05
3,TTCTGCACGTGGAATG,0.08
4,GGAGGCACGTGTTCTA,0.04
5,TAGGTCACGTGCAGGC,0.19
6,GCGGTCACGTGCAGGG,0.19
7,CGGGACACGTGATGGT,0.28
8,TTAGGCACGTGGCAGT,-0.14
9,ATATTCACGTGTAGTA,0.19
10,TGTCTCACGTGTTCAG,0.22
11,CGAAGCACGTGGTAGG,-0.24
12,AAGGTCACGTGGGTAG,0.06
13,ATAGTCACGTGCGTAA,0.15
14,GCGTTCACGTGTGAGA,0.53
15,AGCGGCACGTGTGATG,-0.06
16,GGGTCCACGTGAATGG,0.31
17,CATGTCACGTGCGGTA,-0.01
18,AATATCACGTGATTGG,0.27
19,GTCGGCACGTGTGCGC,0.07
20,TGAGGCACGTGTTGCA,-0.11
21,ATCGGCACGTGATAGT,0.09
22,TTTGTCACGTGACTGC,0.25
23,GTAGGCACGTGAATTA,0.13
24,TTCGGCACGTGAGGTC,0.2
25,GGATTCACGTGTTCGA,0.18
26,TAAGACACGTGGTTTG,0.11

row,Sequence,relative binding free energy [kcal/mol]
1,GTTTCCACGTGGTTTG,0.05
2,GCTAGCACGTGGGGCT,-0.15
3,AGTGGCACGTGGTGGA,-0.06
4,ACGAGCACGTGGGAGG,-0.26
5,TGATACACGTGTTAAG,0.22
6,TTAAGCACGTGGGTTA,-0.22
7,TTGTTCACGTGCAGTG,0.22
8,TATAACACGTGGTTTG,-0.05
9,TATTGCACGTGTGGAG,0.07
10,GGTTGCACGTGTTGAC,0.05
11,TCTGGCACGTGGGGAC,-0.2
12,ATGATCACGTGTTTAT,0.14
13,TTTCACACGTGGTTGA,0.05
14,ATATTCACGTGTTAAT,0.11
15,AGATGCACGTGATATG,0.01
16,GCGTGCACGTGTGGTG,0.08
17,GAGTACACGTGGGTTG,0.04
18,TGAGGCACGTGTCCGG,-0.2
19,GGCAACACGTGTTAGG,0.18
20,TTCGGCACGTGGTCTT,-0.08
21,GAGCTCACGTGGAGGT,0.43
22,GGCATCACGTGAATGG,0.4
23,ATCGACACGTGGGGGT,-0.22
24,GGTGTCACGTGTTAGA,0.19
25,AGGAACACGTGGCGGT,-0.01
26,GATTACACGTGTATTT,0.32

row,Sequence,relative binding free energy [kcal/mol]
1,TTATTCACGTGTTTGG,0.35
2,GAGGCCACGTGTGTAT,0.08
3,TTTATCACGTGTGATT,0.3
4,AGTATCACGTGGAGGG,0.09
5,GAGTACACGTGGCGTG,-0.06
6,CGGTTCACGTGTTGGA,0.24
7,CGGTACACGTGTATGT,0.06
8,TTGATCACGTGATCAG,0.26
9,GACGGCACGTGTAATG,0.19
10,AAGGGCACGTGGCGGT,-0.09
11,GTAGGCACGTGCGCTG,-0.18
12,TTTGTCACGTGTATCG,0.15
13,AGTTTCACGTGTTAGA,0.15
14,TCTAACACGTGTTTTA,0.13
15,TGGCGCACGTGGGAAG,-0.2
16,GGGCTCACGTGATTGA,0.44
17,GTGTGCACGTGAGGCG,0.19
18,GGGTGCACGTGCGGCA,-0.08
19,TTTGTCACGTGGAAAG,0.21
20,TTTGACACGTGTGTCG,0.12
21,GGTGCCACGTGTAGAG,-0.05
22,CGGGACACGTGAAGGG,0.31
23,TCAAACACGTGTGGGA,0.26
24,TGGATCACGTGTTATC,0.29
25,CGTTTCACGTGTGTAA,0.27
26,AAGGGCACGTGGGAAC,-0.12

row,Sequence,relative binding free energy [kcal/mol]
1,ATTGTCACGTGGTGCT,0.08
2,GTGGCCACGTGATGTT,0.18
3,TCTTGCACGTGGGGGT,-0.18
4,TTCCGCACGTGTGAGT,0.08
5,GGGTTCACGTGCAAGG,0.25
6,TTTGACACGTGCGTTG,-0.05
7,AGCTACACGTGGTTTT,0.07
8,GTCGGCACGTGCTGGG,0.02
9,TATCGCACGTGTGTGA,-0.01
10,TGTCTCACGTGTTGCT,0.1
11,ATTGTCACGTGATGCG,0.2
12,TTTATCACGTGCGCTT,0.05
13,TGGGACACGTGCAGGA,0.04
14,AATAGCACGTGCGGGC,-0.01
15,AGTATCACGTGTAATG,0.14
16,ATTAACACGTGGGTGA,-0.05
17,AAAGCCACGTGGTGGG,-0.2
18,ATTGGCACGTGAGGGC,0.18
19,ATTCGCACGTGTTTAT,0.05
20,ATTGTCACGTGATAGC,0.36
21,GCATGCACGTGGAAGG,0.11
22,AGAGTCACGTGAGAAG,0.43
